Inconclusive results, whose numbers are uncertain, are shown with a selection of clear calls. For some of these results: Potencies beside an inconclusive call are fits to weak or partial responses and may not hold up. The source made the active and inactive calls. Unless noted, calls follow the shape of the dose curve; as a rule, active = well fitted curve in the direction sought with a large enough effect in the repeat runs; inconclusive = weak or mixed curves; inactive = no such curve, though single readings can be large; an effect the other way counts as inactive or inconclusive.
Columns and labels:
[1] = target: Luciferin 4-monooxygenase (Photinus pyralis) (UniProt P08659); experiment: qHTS assay to identify small molecule inhibitors of firefly luciferase (AID 1224835); also: nearly all actives have a fitted effect of over 25% in size; also: potency is read from the fitted curve at half-maximal effect
In short: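 Inhibition of purified Photinus luciferase is measured by luminescence. Substrate levels (D-luciferin, ATP) sit at their KM values. Each compound is tested in a concentration series.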

[2] = target: Nuclear receptor subfamily 1 group I member 3 (Homo sapiens) (UniProt Q14994); experiment: qHTS assay to identify small molecule antagonists of the constitutive androstane receptor (CAR) signaling pathway (AID 1224838);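 also: HepG2 cells stably expressing hCAR with CYP2B6 luciferase reporter stimulated by CITCO; % is scaled to controls: 0 for no effect and ±100 for the full control effect; nearly all actives have a fitted effect of over 40% in size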
In short: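 Human hepatoma HepG2 cells expressing hCAR and a CYP2B6 promoter (2.2 kb) luciferase construct; compound titration (15 points) with 50 nM CITCO final, 24 h at 37 C/5% CO2; luminescence via ONE-Glo after 30 min at room temperature.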

[3] = qHTS assay to identify small molecule agonists of H2AX (AID 1224845; active = well fitted activation curve with a large enough effect in the signal ratio in the repeat runs, not every such curve was filed as active; inconclusive = weak or mixed curves; the % refers to the signal ratio; also: potency is read from the fitted curve at half-maximal effect); conditions: CHO-K1 phospho-H2AX Ser139 HTRF, 3 h; activation (H2AX phosphorylation): at 154 µM (top of the series) unless noted
In short: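 Phospho-H2AX Ser139 measured by HTRF (ex 320 nm; em 665 and 620 nm) after 24 hr antibody incubation. Compounds, 15 concentrations, 0.76% DMSO, were applied to CHO-K1 cells for 3hr at 37C before lysis.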

[4] = qHTS assay to identify small molecule antagonists of the estrogen related receptor (ERR) signaling pathway from Tox21 library - cell viability counter screen (AID 1224834); also: nearly all actives have a fitted effect of over 30% in size; also: potency is read from the fitted curve at half-maximal effect
In short: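 Seeded ERR cells were rested 6 h at 37 C/5% CO2 before compounds, positive and negative controls or DMSO were added. Incubation continued for 17.5 h, and viability was then quantified by CellTiter-Fluor fluorescence.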

[5] = qHTS RealTime-Glo MT Cell Viability Assay in HEK293 cells - 32 hour (AID 1224868); also: nearly all actives have a fitted effect of over 50% in size; also: potency is read from the fitted curve at half-maximal effect
In short: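 Cells + reagent dispensed (600 cells/well, HEK293) → 5 h at 37 C/5% CO2 → 23 nL compound in DMSO pinned → 40 h at 37 C → luminescence read at 0, 8, 16, 24, 32, 40 h.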

[6] = qHTS assay to identify small molecule antagonists of the constitutive androstane receptor (CAR) signaling pathway - cell viability counter screen (AID 1224837); also: % is scaled to controls: 0 for no effect and ±100 for the full control effect; nearly all actives have a fitted effect of over 45% in size
In short: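 To flag cytotoxic false antagonists, HepG2 hCAR/CYP2B6-2.2kb cells were treated 23 hr with 15-concentration compound series and 50 nM CITCO at 37 C/5% CO2; CellTiter-Fluor fluorescence was the measured end point.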

[7] = qHTS assay to identify small molecule agonists of the hypoxia (HIF-1) signaling pathway (AID 1224846; active = well fitted activation curve with a large enough effect in the signal ratio in the repeat runs, not every such curve was filed as active; inconclusive = weak or mixed curves; the % refers to the signal ratio; also: potency is read from the fitted curve at half-maximal effect; as to activation: % is scaled to controls: 0 for no effect and ±100 for the full control effect); conditions: HRE-bla ME-180 cells, beta-lactamase ratio, 17 h; activation: at 76.8 µM (top of the series) unless noted
In short: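 Reporter induction in HRE-bla ME-180 cells is taken as agonism: cells sit 5 hrs after plating, receive compounds or DMSO only, incubate 17 hrs at 37C under 5% CO2, and are loaded with CCF4-AM for beta-lactamase FRET measurement.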

[8] = target: Nuclear receptor subfamily 1 group I member 3 (Homo sapiens) (UniProt Q14994); experiment: qHTS assay to identify small molecule agonists of the constitutive androstane receptor (CAR) signaling pathway (AID 1224839); also: potency is read from the fitted curve at half-maximal effect; nearly all actives have a fitted effect of over 15% in size
In short: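 Stable hCAR/CYP2B6-2.2kb HepG2 line in DMEM with 10% FBS; compounds (15 concentrations) and 0.75 uM PK11195 final, 24 h at 37 C/5% CO2, then ONE-Glo luminescence after 30 min.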

[9] = qHTS assay to identify small molecule antagonists of the estrogen related receptor signaling pathway with the pleiotropic PPARgamma coactivator (PGC) from Tox21 10K library (AID 1224841; call rule not given here; also: actives are mostly falling curves and most rising ones were filed inactive; nearly all actives have a fitted effect of over 50% in size; also: potency is read from the fitted curve at half-maximal effect; as to activity, negative = inhibition: % is scaled to controls: 0 for no effect and ±100 for the full control effect)
In short: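 Test chemicals dissolved in DMSO were applied to pre-incubated (6 h) PGC/ERR cells at 2,000 cells/well for an 18 h, 37 C treatment; reporter luminescence was then read using One-Glo.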

[10] = qHTS assay to identify small molecule antagonists of the estrogen related receptor (ERR) signaling pathway from Tox21 library (AID 1224848); also: potency is read from the fitted curve at half-maximal effect; nearly all actives have a fitted effect of over 50% in size
In short: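 ERR cell line, 2,000 cells/well. 6 h settle, then compound (DMSO) added; 18 h at 37 C; ONE-Glo luminescence after 30 min RT.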
Tags tell the direction and shape of the fitted curve or compound fluorescence and quenching.

UniProt P08659, sequence (P08659 whole entry, looked up): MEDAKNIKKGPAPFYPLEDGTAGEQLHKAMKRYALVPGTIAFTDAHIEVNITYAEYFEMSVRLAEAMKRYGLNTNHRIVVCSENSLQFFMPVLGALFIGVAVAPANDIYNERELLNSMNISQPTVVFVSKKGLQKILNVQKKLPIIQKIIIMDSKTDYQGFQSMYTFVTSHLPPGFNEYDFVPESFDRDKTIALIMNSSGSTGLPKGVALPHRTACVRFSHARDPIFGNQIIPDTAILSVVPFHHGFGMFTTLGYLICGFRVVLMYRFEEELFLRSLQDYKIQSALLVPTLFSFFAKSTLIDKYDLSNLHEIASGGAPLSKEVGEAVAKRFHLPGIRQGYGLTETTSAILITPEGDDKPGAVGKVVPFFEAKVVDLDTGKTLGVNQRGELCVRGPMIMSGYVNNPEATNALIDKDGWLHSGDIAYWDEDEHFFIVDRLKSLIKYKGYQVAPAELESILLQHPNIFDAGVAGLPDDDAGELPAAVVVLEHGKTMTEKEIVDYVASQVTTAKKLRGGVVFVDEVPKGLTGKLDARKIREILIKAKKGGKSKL
UniProt Q14994, sequence (Q14994 whole entry, looked up): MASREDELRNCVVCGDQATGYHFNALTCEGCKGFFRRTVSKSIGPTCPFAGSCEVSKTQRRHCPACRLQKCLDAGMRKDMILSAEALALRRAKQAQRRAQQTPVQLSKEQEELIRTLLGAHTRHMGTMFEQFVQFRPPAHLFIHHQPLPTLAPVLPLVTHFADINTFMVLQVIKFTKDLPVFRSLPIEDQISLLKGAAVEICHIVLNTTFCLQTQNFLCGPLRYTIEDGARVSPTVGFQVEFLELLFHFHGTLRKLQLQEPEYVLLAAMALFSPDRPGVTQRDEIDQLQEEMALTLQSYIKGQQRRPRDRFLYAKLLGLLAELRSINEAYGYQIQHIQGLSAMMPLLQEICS

Q: For `CC(C)c1cccc(O)c1`, which Potency [1] is on record?
A: The Potency was inconclusive: 74.8 µM [inhibitor, partial curve, poor fit].

Q: Which Potency [1] does the source give for `O=c1oc2c(O)c(O)cc3c(=O)oc4c(O)c(O)cc1c4c23` here?
A: Its Potency is active: 12 µM.

Q: What about the activity, negative = inhibition [2] of the same compound?
A: Its activity, negative = inhibition is inactive: 7.54% [at 19 µM].

Q: What about the Potency [3] of the same compound?
A: Its Potency is inconclusive: 19.1 µM [cytotoxic, partial curve].

Q: With `CC(COC(C)(C)C)OCCCO` (stereo not drawn) as the compound, how does the Potency [4] read?
A: The Potency was inconclusive: 30.6 µM [cytotoxic, single point].

Q: And the Potency [5]?
A: The Potency was inconclusive: 54.9 µM [cytotoxic, single point].

Q: With `C=CCOC(=O)c1ccc(C(=O)OCC=C)c(C(=O)OCC=C)c1` as the compound, how does the Potency [1] read?
A: The Potency was inconclusive: 89.4 µM [inhibitor, single point].

Q: And the Potency [6]?
A: The Potency was “inactive”.

Q: For `CC(C)=CCCC(C)CCOC=O` (stereo not drawn), which Potency [4] is on record?
A: The Potency was “inactive”.

Q: And the Potency [5]?
A: Its Potency is “inactive”.

Q: For `Cc1ccc(C(N)=O)cc1N`, which Potency [1] is on record?
A: Its Potency is “inactive”.

Q: What about the Potency [6] of the same compound?
A: The Potency was “inactive”.

Q: And the Potency [7]?
A: Its Potency is “inactive”.

Q: Which Potency [1] does the source give for `CCN(CC)c1ccc(C=O)c(O)c1` here?
A: The Potency was inconclusive: 79.6 µM [inhibitor, single point].

Q: What about the Potency [8] of the same compound?
A: Its Potency is inconclusive: 54.5 µM [activator, partial curve].

Q: And the Potency [9]?
A: The Potency was inconclusive: 68.6 µM [falling, single point].

Q: And the Potency [10]?
A: Its Potency is inconclusive: 38.6 µM [inhibitor, partial curve].

Q: Which Potency [1] does the source give for `CC(O)CN(CCCN(C)C)CCCN(C)C` (stereo not drawn) here?
A: Its Potency is “inactive”.

Q: With `Cc1cc(C)c(C)c(C)c1` as the compound, how does the Potency [1] read?
A: Its Potency is “inactive”.

Q: With `O=C(O)c1cccnc1Nc1cccc(C(F)(F)F)c1` as the compound, how does the Potency [1] read?
A: The Potency was active: 19.5 µM.

Q: What about the Potency [8] of the same compound?
A: The Potency was inconclusive: 29.8 µM [activator, partial curve].

Q: And the Potency [9]?
A: The Potency was “inactive”.

Q: And the Potency [7]?
A: Its Potency is inconclusive: 2.68 µM [falling, full curve].

Q: And the Potency [10]?
A: Its Potency is inconclusive: 33.5 µM [inhibitor, single point].

Q: Which Potency [1] does the source give for `CCCCCCCCCCCCC(=O)O` here?
A: The Potency was active: 63.5 µM.

Q: What does the source list for `CC(C)C(=O)OCCc1ccccc1`?
A: Potency [1]: inconclusive: 89.4 µM [inhibitor, single point]; Potency [6]: inactive

Q: Which Potency [1] does the source give for `Nc1ccc(S(=O)(=O)c2ccc(N)cc2)cc1` here?
A: Its Potency is “inactive”.

Reference: PubChem BioAssay (Tox21)
